# Experimental data taken from PubChem BioAssay AID624173 (National Center for Advancing Translational Sciences (NCATS), 2012).
# Among all 410,000 compounds or so, about 490 (0.12%) were called active. The inconclusive results got no clear call from the source; some entries with a clear call stand among them for comparison. Calls follow the shape of the dose curve; as a rule, active = well fitted inhibition curve with a large enough effect; inconclusive = small, poorly fitted or top-dose-only effect; inactive = flat fitted curve, though single readings scatter. A potency beside an inconclusive call is a rough fit, not a confirmed value.
# Target: pyruvate kinase (Trypanosoma brucei) (UniProt Q57TT1)
# Assay: qHTS of Trypanosoma Brucei Inhibitors; also: nearly all actives have a fitted effect of over 50% in size
# Conditions: TbPYK enzyme, Kinase-Glo Plus ATP luminescence, 45 min; series mostly up to 76.8 µM; activity, negative = inhibition: at the top concentration
# Summary of the method: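 Luminescence from Kinase-Glo Plus, added after a 45-minute room-temperature reaction, served as the end-point read-out. The enzyme and substrate were preincubated with compound before ADP (130 uM final) initiated turnover. Concentration-effect curves came from normalized qHTS data.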
# % is scaled to controls: 0 for no effect and ±100 for the full control effect; potency is read from the fitted curve at half-maximal effect; tags tell the direction and shape of the fitted curve.
SMILES,Potency,"activity, negative = inhibition"
O=C(COc1ccccc1/C=C1/NC(=O)NC1=O)Nc1ccccc1,"inconclusive: 28.2 µM [inhibitor, partial curve]",
COc1ccc(C(=O)/C(C#N)=N/Nc2ccccc2[N+](=O)[O-])cc1,,inactive: -5.69%
CSc1nsc(SC)c1NC(=O)N1CCCC1,"inconclusive: 11.2 µM [inhibitor, partial curve, poor fit]",
O=C(NC1CC(=O)N(c2cccc(F)c2)C1)C1CC1 (stereo not given),,inactive: -11.1%
COc1cccc(-c2nnc(SCC(=O)NCc3ccc4c(c3)OCO4)n2Cc2ccco2)c1,"inconclusive: 31.6 µM [inhibitor, partial curve]",
CCC(C(=O)OCC(=O)Nc1cccc(C(C)=O)c1)c1ccccc1 (stereo not given),,inactive: 2.36%
Cc1cc(NC(=O)/C=C/c2cccc(F)c2)n(-c2nc3ccccc3[nH]2)n1,,inactive: -4.22%
CCOC(=O)c1oc2nc(C)c3c(c2c1N)CC(C)(C)OC3,"inconclusive: 35.5 µM [inhibitor, partial curve, poor fit]",
COC(=O)c1ccc(CCc2cc(O)c(Br)cc2O)cc1,"inconclusive: 35.5 µM [inhibitor, partial curve, poor fit]",
CCOC(=O)C1=C(C)N=c2s/c(=C/c3cccc([N+](=O)[O-])c3O)c(=O)n2C1c1ccc(OC)cc1OC (stereo not given),"inconclusive: 35.5 µM [inhibitor, partial curve, poor fit]",
COC(=O)[C@]1(Cc2ccccc2)N[C@H](CN(C)C(=O)C2CCCCC2)[C@@H]2C(=O)N(Cc3ccccc3)C(=O)[C@@H]21,,inactive: -0.814%
COc1cc2ccc(CC(N)=O)cc2cc1OC,"inconclusive: 25.1 µM [inhibitor, partial curve]",
Cc1ccc(NC(=O)/C=C/c2ccc(C)o2)c(C)c1,"inconclusive: 28.2 µM [inhibitor, partial curve, poor fit]",
Cc1ccc(CN(C)C(=O)c2cc(COc3cccc(C(F)(F)F)c3)on2)o1,"inconclusive: 28.2 µM [inhibitor, partial curve]",
COc1ccc(-c2nnc3ccc(SCC(=O)N4CCN(c5ccccc5)CC4)nn23)cc1,"inconclusive: 28.2 µM [inhibitor, partial curve]",
CN1C(=O)c2ccccc2Sc2ccc(NC(=O)COc3ccc(F)cc3)cc21,,inactive: -7.3%
C[C@H]1CCC/C=C/[C@@H]2C[C@H](O)C[C@H]2[C@H](O)[C@H](S(=O)c2ccc(O)cc2)CC(=O)O1 (stereo not given in full),"inconclusive: 39.8 µM [inhibitor, partial curve, poor fit]",
O=C1NC(=O)C(=Cc2ccc(-c3ccccc3[N+](=O)[O-])o2)C(=O)N1,active: 15.8 µM,
Cc1ccc(/C=C2/C(=O)ON=C2c2ccccc2)o1,"inconclusive: 39.8 µM [inhibitor, partial curve, poor fit]",
CC(=O)N1CCN(C(=O)CSc2nc3c(cnn3-c3ccccc3)c(=O)[nH]2)CC1,,inactive: -7.53%

SMILES,Potency,"activity, negative = inhibition"
CCc1ccc(Oc2c(C(F)(F)F)oc3c(CN4CCN(C)CC4)c(O)ccc3c2=O)cc1,,inactive: 3.4%
CCOC(=O)C1=C(C)N=c2s/c(=C\c3ccc(OC(C)=O)c(OCC)c3)c(=O)n2C1/C=C/c1ccccc1 (stereo not given),"inconclusive: 31.6 µM [inhibitor, single point]",
CC1CN2C(c3ccc([N+](=O)[O-])cc3)=CSC2=N1 (stereo not given),"inconclusive: 31.6 µM [inhibitor, partial curve, poor fit]",
CC(C)C[C@H]1COc2cccc(N3CCC[C@H]3CO)c2S(=O)(=O)N1,,inactive: -1.87%
O=C(NCCCN1CCCC1=O)c1ccc2c(=O)n(Cc3ccco3)c(=S)[nH]c2c1,"inconclusive: 20 µM [inhibitor, partial curve, poor fit]",
CN(C)c1nc(Nc2ccc(Cl)c(Cl)c2)nc(N(C)C)n1,"inconclusive: 50.1 µM [inhibitor, single point]",
Cc1ccccc1-c1nsc(SCC(=O)Nc2ccc3c(c2)OCO3)n1,,inactive: 7.1%
S=c1[nH]nc(-c2ccco2)n1/N=C/c1ccccc1Cl,"inconclusive: 31.6 µM [inhibitor, partial curve, poor fit]",
CCN(CC)c1ccc(NC(=O)c2cccc(C)c2)cc1S(=O)(=O)Nc1ccccc1OC,"inconclusive: 6.31 µM [inhibitor, partial curve, poor fit]",
Cc1ccc(C(=O)O)cc1-c1ccc(/C=C2/NC(=O)N(c3ccccc3)C2=O)o1,"inconclusive: 35.5 µM [inhibitor, partial curve, poor fit]",
Cc1ccccc1N/N=C/c1sc(=O)n(Cc2cccc(C(=O)O)c2)c1Cl,,inactive: -26%
CCOc1ccc(S(=O)(=O)Nc2cc(SCC(=O)O)c(O)c3ccccc23)cc1,"inconclusive: 1.78 µM [inhibitor, partial curve, poor fit]",
Cc1ccc(C(=O)/C=C/C(=O)c2ccc(C)cc2)cc1,"inconclusive: 28.2 µM [inhibitor, partial curve]",
COc1cc(CNn2c(C)n[nH]c2=S)cc(Br)c1OCc1ccc(F)cc1,"inconclusive: 44.7 µM [inhibitor, partial curve, poor fit]",
Cc1nc(NC2=NCN(Cc3cccnc3)CN2)nc2ccccc12,"inconclusive: 35.5 µM [inhibitor, partial curve, poor fit]",
COc1ccc(Cl)cc1NC(=O)c1c(NCc2ccc(C)o2)sc2c1CCCCC2,"inconclusive: 11.2 µM [inhibitor, partial curve]",
CCc1n[nH]c(=S)n1/N=C/c1ccc(N(CC)CC)cc1,"inconclusive: 2 µM [inhibitor, partial curve, poor fit]",
CC(C)OC(=O)CC1C(=O)NCCN1C(=S)NC(=O)c1cccs1 (stereo not given),"inconclusive: 39.8 µM [inhibitor, single point]",
CCOc1cc(/C=C2\C(=O)ON=C2c2ccccc2)ccc1OC,"inconclusive: 50.1 µM [inhibitor, single point]",
N#Cc1c(NC(NC(=O)c2ccco2)C(=O)c2ccccc2)sc2c1CCCC2 (stereo not given),"inconclusive: 28.2 µM [inhibitor, partial curve]",
